Patent publication US8592367B2, “Nodule specific medicago peptides having antimicrobial activity and pharmaceutical compositions containing the same” (priority 2009, dated 2013)

Test system: Sinorhizobium meliloti AK631
Assay: PI staining of Sinorhizobium meliloti
Conditions: 1, 2, 5, 10, 20 and 50 μg/ml, log phase bacteria, FIGS. 3A to 3E
Description: Propidum Iodide (PI) is able to intercalate into the DNA structure and emits fluorescence only in DNA bound form. PI is able to enter only into cells that lost the membrane integrity therefore it is commonly used for identifying dead cells by detecting fluorescence emission intensity. Intact membranes are impervious for PI, therefore PI is excluded from alive cells, and no fluorescence is observed.
PI staining was measured in a BMG Labtech Fluostar Optima fluorimeter (excitation: 520 nm, emission: 610 nm). Reactions were initiated by addition of NCR peptides to the bacteria. Kinetic measurements were performed, in most cases a plateau of fluorescence intensity was reached within minutes.
Peptides (NCRs) were added at 1, 2, 5, 10, 20 and 50 μg/ml concentrations to log phase bacteria.
Polymyxin B was added at 50 μg/ml.

Substance | relative PI fluorescence at various concentrations | relative PI fluorescence at various concentrations (listed as NCR35)
NCR035: cationic NCR peptide (SFLGTFISSCKRDKDCPKLYGANFRCRKGTCVPPI; Peptide derived from Medicago truncatula) | high activity from 2 μg/ml | significant PI fluorescence at 10 or 20 μg/ml
NCR055: cationic NCR peptide (VNDCIRIHCKDDFDCIENRLQVGCRLQREKPRCVNLVCRCLRR; Peptide derived from Medicago truncatula) | significant PI fluorescence at 10 or 20 μg/ml | –
NCR057: cationic NCR peptide (RPVSCKDHYDCRRKVKIVGCIFPQEKPMCINSMCTCIREIVP; Peptide derived from Medicago truncatula) | more active at higher concentrations (20 and 50 μg/ml) | –
NCR247: cationic NCR peptide (RNGCIVDPRCPYQQCRRPLYCRRR; Peptide derived from Medicago truncatula) | significant PI fluorescence at 10 or 20 μg/ml | –
